According to the supplement of paper PMC10126150:
Values marked as one replicate rest on one cluster of the flow cell; about a third of the high ones do not repeat.

Test system: ATP
Assay: switch fluorescence ratio, 500 uM ATP over buffer (Cy3 cluster intensity, sum of 5 cycles each) (fold (ratio)); higher = stronger signal-on switching upon ATP binding; sequences stand for … in TCGTCGGCAGCGTCAGATGTGTATAAGAGACAGTTTTTTTTTTTTTTTTTTTTTTTTT…TC
Conditions: aptamer strand: ATP DNA aptamer (quencher-CACCTGGGGGAGTATTGCGGAGGAAGG + anchor), 100 nM annealed; ATP concentration: 500 uM; one replicate
How it was run: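 The fluorescence ratio divides summed target-cycle Cy3 intensity by summed buffer-cycle Cy3 intensity for each cluster and is averaged per switch-domain sequence. Cy3-labelled switching-strand clusters on a modified Illumina MiSeq flow-cell were annealed to 100 nM quencher-labelled ATP aptamer, then imaged in selection buffer and again after 15 min with 500 uM ATP at 22 °C. Five such cycles were run, with NaOH stripping and re-annealing between them, and clusters outside 100-1000 RFU were excluded.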
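Further: ATP exposure 15 min at 22 °C before imaging.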

Sequence	switch fluorescence ratio
TACCGCTGG	1.03
TAGCTGAGGC	1.01
TAACGCAATG	5.62
AACGGTACCC	1.34
GATCTCGTAC	1.09
CTAAGCACGG	1.14
TCGTATATGT	1.01
TGATTGTACG	1.03
TGCACTTTAT	1.02
CGACGCTAGG	2.96
CGCCACATGG	1.95
TCCTTATAGA	1.02
TTGCCACAGG	1.39
GAAACTCTT	1.05
ATACTAGTTG	0.95
AAAGTTGCAT	0.987
ATCTGACGAG	0.98
TCACCGTATG	1.07
GGTACGCACG	1.31
GGGTTGACC	0.997
CTGCTAGAAT	1.03
CCAGGTAGTA	1.23
TCAAAGGCAG	0.989
CTCGGTAAGC	1.19
TAGAGGGCAC	1.18
CTGTTCTATT	1

Sequence	switch fluorescence ratio
ATGCGGTAAG	0.997
GGTGTACGCA	1.05
CAGGTCGAGT	0.946
GGTTTCTGAC	1.02
ATGTTACGGA	1.06
TAGCCTGCAT	0.972
CAGATCGAAA	1.06
GCATGAGAGC	0.987
AGGGACTAC	1.06
GTATTTTCAA	0.998
GAGACCGTTC	0.986
CGTGGTTGGA	1.01
TAAACTTGT	1.01
GTATGGGG	1.01
TGACTAACAC	1.18
TTATGGTTTG	1
TAAGCTAGCC	1.07
TCTGCAGACT	1.17
AACGTGGGCC	0.999
AGTTTACTAA	0.992
TCGGTTATG	1.01
CAACCAGGGA	1.5
ATTTGCTC	0.979
CGTGCCAGAT	0.998
CCTCACCCCG	1.37
TCATTGTGAC	0.961

Sequence	switch fluorescence ratio
AATTAGTGGT	0.998
AAAGGGGATA	1.09
TTCGTAGGAG	0.994
ACTTATGCAC	1.13
TGAAGGGAAG	0.999
AATCAGCAGT	1.22
GAGGCCTGG	0.95
AAACGTATTA	1.08
GCGTACTAAT	1.02
ATTTCAATTG	0.995
TTGCCACTGC	1.04
GTTAACTCGC	0.986
CCGGCATTGG	1.48
TAGGGATCTA	1
GTCGGGCGC	0.972
GTATCGGATG	0.931
CCTGTAGTTA	1.04
GCGATCAGTC	1
CTAAACTTTG	0.979
TTATGTGCAC	1.04
CACCATACGC	1.34
ATTGGAGATA	0.943
TAGAGAATTG	1.05
CATTTTAGTC	1.06
TGGTTGTGTA	1.06
AGTTGAGTAA	0.998

Sequence	switch fluorescence ratio
GAGAGTTCGA	1.01
GCGGCAGGTG	2.41
CGGGCCTAAT	0.971
GCGTGATGGC	1.07
GATGGGCCC	0.933
AAATGGGGCC	1.02
TTGCCCAGGC	1.11
CCTTATTGTA	1.01
ACGCTGAGGA	1.06
AGCAGCGTGG	0.979
CTTGTACGAA	1.03
GTGAACGGGA	1.02
GATGTTAATT	1.07
CGCGACTTTA	1.07
CATCTGCGAG	2.15
TTTTTACCGC	1.2
TGGAGCTAGG	1.01
CGATAGGTCG	0.977
ACCAGTAACG	1.05
AGAAAGTGCT	0.953
GAGTCTAATT	1.02
CGGCTAGGCA	0.987
ATCGACAGGG	0.975
CTTGAGTTGC	0.987
GGCAGGCACG	0.981
ACTATTGAGC	1.05

Sequence	switch fluorescence ratio
GGGGCCTCGT	1
AACCAATGTA	0.98
TTCATTTGTG	0.975
GCCCCGTGGG	1.02
TTTGCATTTT	0.953
TTAGGGAAGA	1.3
GAGTAAAGGA	0.988
CCACATAATC	1.22
TATGTGACAC	0.981
AAATAAGTTT	1.02
CGTAGCAGCG	1.08
AGGGTGGTGG	0.995
CTACTCTTAC	1.45
TTCCACACTG	1.02
TGTGGTAGTT	0.985
TTCGGTTCCT	0.997
GTAAGTGGAC	0.974
TTAAGACAGT	0.988
GGCGGAAGAC	1.42
CTTTATATTG	0.981
ATGACGGCGC	0.93
TAGGCAAGCA	1.02
AGAATGTAAA	1.03
ACTATACTAT	1.29
CACTATTTCA	0.985
TTTGCAGAGG	1

Sequence	switch fluorescence ratio
TATGACGCTG	1.01
CGCGGGGCTA	0.997
ACCAAAAGG	0.981
AGTTTCTTCA	1.04
GATTATTTAT	0.952
CGCTAAAAAT	1.09
TATCGTCC	0.932
AGGCACTACT	1.18
TGACTTGGGC	0.954
CGAAACTTCG	1.06
GATACACAAT	1.06
ATGGTCTTAG	1.04
TGTCCTAAT	0.973
TGTATTTAAA	1.1
AGGTGACAA	0.997
AGTATTCAT	1.03
GAAGACATGC	1.05
GAGCCAATTG	0.979
GTAGGGTTCT	1.25
CGGGGTGATG	0.951
TTAAAGCCGA	0.992
GTTTTAACTC	1
TTAGATAGAC	1.09
ACGACAAAAA	1.11
GTTATTTGAT	0.986
GGCAGCATTA	1.14

Sequence	switch fluorescence ratio
GTTAAGGGTT	0.991
AGGCGGAAGC	0.974
AGTGACAATA	1.06
AAGGTGGCAG	0.992
TAGCCCCCG	1.04
AGCGGGATCC	1.01
CCAATTATTC	1
GGCCCCTGGA	1.01
CTCGCGTGTT	1.01
GAAAAACAAG	1.02
TACTCGCAGC	3.06
TAGCTAATAT	1.05
TATCGAGGTT	1.01
TATACACTAC	1.28
CTGTTTTGAT	0.961
GCCTCTAAGG	1.02
GGCAGCACGT	1.02
AACGAATCCG	0.978
TCGAAGCCGT	1.02
TACACGAATT	0.962
CAGGATGTCA	1.03
TTTTAAGTAT	0.989
TGTACCTAGC	1.05
TTGTTTAAA	0.951
CTTAGGGCA	0.93
CTTTAACGTA	1.08

Sequence	switch fluorescence ratio
GACAACTCGC	1.03
ATAACCCCCA	1.44
TGTTTGCAG	0.995
ATGGTATTGG	1.03
TTGACTAGTC	0.992
AGCGACGCAT	3
CGTAACTCGA	0.984
GCCTAAGGA	0.944
CTGTGGGAA	0.987
TAGCTCAAGT	0.982
TATAGCCTGG	1.01
TGTTCAGCCA	0.999
TTGCATAGGC	0.996
TCTGGCGGGT	0.986
CAGATAGCCG	1.02
AGTGGTGTTA	0.968
GGGGCAACCG	0.983
ACAACGTAAT	1.07
CCAGGTCGTT	1.29
